Experimental data as given in publication PMC4336329 (PLoS ONE, 2015).
Out of some 310,000 compounds screened, about 14,000 (4.5%) showed an effect of 50% or more. The effect is printed as a negative number. This is one part of the list.

molecular target: human ether-à-go-go-related gene (hERG) potassium channel (human, UniProt Q12809); assay: primary screen, population patch clamp on CHO cells stably expressing hERG
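Note: peak tail current of the secondary pulse compared with the same well before compound.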

Chain of human ether-à-go-go-related gene (hERG) potassium channel (Q12809 whole entry, looked up): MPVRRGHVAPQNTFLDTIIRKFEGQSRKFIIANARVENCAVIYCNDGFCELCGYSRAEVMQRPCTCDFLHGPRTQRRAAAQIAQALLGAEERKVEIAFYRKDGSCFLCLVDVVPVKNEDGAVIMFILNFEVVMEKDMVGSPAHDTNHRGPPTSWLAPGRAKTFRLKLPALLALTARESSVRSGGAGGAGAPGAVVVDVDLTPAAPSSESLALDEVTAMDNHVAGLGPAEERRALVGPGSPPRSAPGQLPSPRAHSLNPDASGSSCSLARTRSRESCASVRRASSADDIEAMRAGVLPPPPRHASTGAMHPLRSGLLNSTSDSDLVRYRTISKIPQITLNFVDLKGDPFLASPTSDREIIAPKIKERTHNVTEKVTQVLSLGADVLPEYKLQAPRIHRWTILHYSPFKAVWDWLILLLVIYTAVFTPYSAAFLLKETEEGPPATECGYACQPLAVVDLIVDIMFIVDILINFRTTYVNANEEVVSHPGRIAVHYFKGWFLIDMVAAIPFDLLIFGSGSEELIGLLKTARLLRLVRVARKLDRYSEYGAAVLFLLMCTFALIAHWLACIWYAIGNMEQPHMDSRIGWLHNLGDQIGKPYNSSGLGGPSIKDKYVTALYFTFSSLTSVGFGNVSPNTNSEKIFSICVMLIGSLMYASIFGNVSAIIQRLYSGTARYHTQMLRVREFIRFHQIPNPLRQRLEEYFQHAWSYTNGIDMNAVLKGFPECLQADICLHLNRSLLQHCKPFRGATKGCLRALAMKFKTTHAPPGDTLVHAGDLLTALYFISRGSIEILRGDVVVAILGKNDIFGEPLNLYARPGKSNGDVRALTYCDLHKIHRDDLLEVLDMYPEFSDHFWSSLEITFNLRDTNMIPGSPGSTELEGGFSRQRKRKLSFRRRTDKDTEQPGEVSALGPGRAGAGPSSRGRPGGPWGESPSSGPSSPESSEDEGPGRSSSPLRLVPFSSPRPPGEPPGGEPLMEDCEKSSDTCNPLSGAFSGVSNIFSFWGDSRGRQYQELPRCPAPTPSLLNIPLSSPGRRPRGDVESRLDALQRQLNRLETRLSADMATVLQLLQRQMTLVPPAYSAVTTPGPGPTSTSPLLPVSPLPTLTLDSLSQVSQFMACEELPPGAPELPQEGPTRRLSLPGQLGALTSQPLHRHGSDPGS

SMILES | hERG current change (%, negative = inhibition) at 10uM [%]
CC1(C)CC(=O)C2=C(C1)Nc1ccccc1NC2c1cccnc1 (stereo not drawn) | 3.26
CCOc1cc(C(=O)OCC(=O)c2c[nH]c3ccccc23)ccc1OCC(=O)N1CCOCC1 | -11.6
CCN1C(=O)[C@@H]2[C@@H](c3ccc(-c4ccc(Cl)c(Cl)c4)c(OC)c3)N3CCCC[C@@]3(C(=O)OC)[C@@H]2C1=O.O=C(O)C(F)(F)F | -11.4
COc1ccc(NC(=O)CSc2nnc(Cc3cccn3C)n2-c2ccc(C)cc2)cc1OC | 8.89
Fc1ccccc1Cc1ccc(Cl)nn1 | 0.887
Cc1onc(-c2c(F)cccc2Cl)c1C(=O)c1ccc(F)cc1 | -2.58
COc1ccccc1C1CN=NC12CCCc1ccccc1C2=O (stereo not drawn) | -6.05
CN(CCc1nc2ccc(Cl)cc2[nH]1)Cc1nc(CC2CC2)no1 | -50.8
CCOC(=O)C1=C(C)Nc2ncnn2C1c1ccccc1F (stereo not drawn) | 2.22
Clc1cccc(-c2nc(NCC3CCCO3)c3ccccc3n2)c1 (stereo not drawn) | 8.35
Nc1cc(C(=O)O)ccc1Nc1ccc(F)c(F)c1 | 13.8
Brc1cccc(CNCc2ccncc2)c1 | 0.127
O=C(Cn1nc(-c2ccccc2)ccc1=O)Nc1ccc(N2CCN(C(=O)c3cccs3)CC2)cc1 | -18.5
Cc1ccc(S(=O)(=O)Oc2ccccc2/C=N/NC(N)=S)cc1 | 15.1
Cc1cc(S(=O)(=O)N2CCN=C2c2ccccc2)c(Cl)cc1Cl | 14.1
CC1CCN(c2nc3c(c(=O)[nH]c(=O)n3C)n2Cc2ccccc2Cl)CC1 | 1.9
COc1ccc(C(=O)O)cc1Nc1cc(C)nc2ncnn12 | 3.79
O=C(COC(=O)c1ccccc1F)NC1CCCC1 | 23.7
COc1ccc(OC)c(NC(=O)CSc2nn3c(=O)c(C)nnc3s2)c1 | 18.3
Cc1c(C)n(C)c2ccc(C(=O)NCCCN3CCN(c4ccccc4F)CC3)cc12 | -54.2
COC(=O)c1ccccc1N1CCS(=O)(=O)CC1 | 18.3
CCCn1c(CCC(=O)O)ccc1-c1cccs1 | 3.57
COc1ccc(Oc2cccc(Cl)c2CNC(=O)CSCC(=O)O)cc1 | 8.59
CC(=O)[C@H]1[C@@H]2C(=O)N(c3cccc(Cl)c3)C(=O)[C@@H]2[C@H]2c3ccccc3C=CN21 | 13.9
